The whole screen tested about 330,000 compounds, of which about 4,200 (1.3%) were called active. The shares of active, inactive and inconclusive entries below differ from those in the screen. The call rests on the fitted dose curve; in most records, active means well fitted activation curve with a large enough effect; inconclusive means small, poorly fitted or top-dose-only effect; inactive means no such curve, though single readings can be large or run the other way. A potency beside an inconclusive call is a rough fit, not a confirmed value.
test: qHTS screen for small molecules that induce genotoxicity in human embryonic kidney (HEK293T) cells expressing luciferase-tagged ELG1; details: HEK293T ELG1-luciferase reporter, luminescence, 16 h; series mostly up to 46 µM; further: nearly all actives have a fitted effect of over 60% in size
Method in brief: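 Quantitative HTS format in 1536-well plates. HEK293T ELG1-luciferase reporter cells receive test compound and are incubated 16 hr at 37 °C, 5% CO2; ONE-Glo added, 30 min room temperature, then luminescence read.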
Potency means the concentration at half of the fitted maximal effect; tags describe the fitted curve by direction and shape.

| SMILES | Potency |
| --- | --- |
| CCN1C(=O)c2cccc3c(N)ccc1c23 | active: 20.6 µM |
| COc1ccc(OC(=O)c2cnn(-c3ccccc3)c2C)cc1 | inconclusive: 2 µM [activator, full curve, poor fit] |
| COc1ccc(C[C@H]2CN3C(=NC[C@H]3Cc3ccccc3)N2CCNC(=O)CCC2CCCCC2)cc1 | inactive |
| O=C(C[n+]1cn(C(F)F)c2ccccc21)c1ccc(OC(F)F)cc1 | active: 16.4 µM |
| COc1cc(CC(=O)N/N=C/c2ccc([N+](=O)[O-])cc2)c([N+](=O)[O-])cc1OC | inactive |
| COc1ccc(CN2C(=O)/C(=C/c3ccc(-c4ccc(Cl)c(C(=O)O)c4)o3)SC2=S)cc1 | inactive |
| COc1ccc(C(OCC(O)CNCCc2ccccc2)c2ccc(OC)cc2)cc1 (stereo not given) | inconclusive: 29.1 µM [activator, partial curve, poor fit] |
| CC(=O)c1c(C)[nH]c(C(=O)CN2C(=O)NC(C)(c3ccc4c(c3)OCCO4)C2=O)c1C (stereo not given) | inconclusive: 16.4 µM [activator, partial curve] |
| CCCC(=O)Nc1ccc(NC(=O)c2cccs2)cn1 | inconclusive: 18.4 µM [activator, partial curve] |
| CCc1c(C)nc(SCC(=O)c2cccs2)c(C#N)c1C | active: 9.2 µM |
| CNC(=O)c1cccc(NC(=O)C(C)c2ccc3cc(OC)ccc3c2)c1 (stereo not given) | inconclusive: 23.1 µM [activator, partial curve, poor fit] |
| O=C(OCCOc1ccccc1Cl)c1ccc(-n2cnnn2)cc1 | inactive |
| COc1ccc(O)c(/C=N/NC(=O)c2cc(=O)[nH]c3ccccc23)c1 | inconclusive: 18.3 µM [activator, single point] |
| C=CCN(c1ccccc1)S(=O)(=O)c1cccc(C(=O)NNC(=O)c2ccncc2)c1 | inactive |
| CC(C)Oc1ccc(/C(O)=C2/C(=O)C(=O)N(CCN(C)C)C2c2ccco2)cc1 (stereo not given) | inconclusive: 20.6 µM [activator, single point] |
| COC(=O)Oc1ccc(/C=N/NC(=O)CSCc2ccccc2Br)cc1OC | inactive |
| Cc1csc(SCC(=O)Nc2nc(-c3ccccc3)cs2)n1 | inconclusive: 29.1 µM [activator, partial curve, poor fit] |
| O=C(N/N=C/c1cccc2cccnc12)c1ccccc1O | active: 20.6 µM |
| O=C1N/C(=C\c2nc3ccccc3s2)c2ccccc21 | active: 0.58 µM |
| Cc1sc2c(c1C)C(=O)NC(c1cccc(O)c1)N2 (stereo not given) | inactive |
| O=C(c1ccc(F)cc1)N1CCC(c2ccccc2)C1 (stereo not given) | inconclusive: 16.4 µM [activator, partial curve] |
| Cc1cccn2c(=O)c(C=O)c(Nc3ccccc3)nc12 | inactive |
| Cc1ccc(NC(=O)c2cc3ccccc3o2)cc1S(=O)(=O)N(C)C | active: 2.59 µM |
| Cc1ccc(NC(=O)C2OCCc3ccccc32)cc1C (stereo not given) | inconclusive: 13 µM [activator, partial curve] |
| O=C(Cc1cccs1)N/N=C\c1ccc([N+](=O)[O-])s1 | inactive |

| SMILES | Potency |
| --- | --- |
| CC(C)c1ccc(CNC(=O)C2CCCN2S(=O)(=O)c2ccccc2)cc1 (stereo not given) | inactive |
| Cc1cc(=O)oc2cc(NC(=O)c3cccc(F)c3)ccc12 | inactive |
| CC(C)C[C@H](NC(=O)[C@H](Cc1ccccc1)n1c(=O)[nH]c2ccccc2c1=O)C(=O)N1CCC[C@@H]1C(=O)O | inactive |
| CCOC(=O)c1oc2ccc(/C=N/O)c(Cl)c2c1C | inconclusive: 18.3 µM [activator, single point] |
| CC(C)c1ccc(-c2cc(C(=O)N3N=C(C(F)F)CC3(O)C(F)F)c3ccccc3n2)cc1 (stereo not given) | inconclusive: 2.06 µM [activator, partial curve] |
| COc1ccccc1N1CCN(CCCN=C2CC(=O)N(C)C(=O)N2C)CC1 | inactive |
| CC(C)CCn1c(SCC(=O)NC2CCS(=O)(=O)C2)nc2cc(Cl)ccc2c1=O (stereo not given) | inactive |
| CCN1CCN(c2ccc(NC(=O)c3cc4ccccc4cc3OC)cc2C)CC1 | inconclusive: 16.4 µM [activator, partial curve, poor fit] |
| CCCCn1c(CN2CCN(c3ccccc3)CC2)nc2c1c(=O)n(C)c(=O)n2C | inconclusive: 18.4 µM [activator, partial curve] |
| O=C(NCCCCCCNC(=O)c1ccc(Br)s1)c1ccc(Br)s1 | inconclusive: 23.1 µM [activator, partial curve, poor fit] |
| CN1CCN(c2ccc(-c3cccc(NC(=O)COc4ccc(Cl)cc4)c3)nn2)CC1 | active: 2.06 µM |
| COc1ccc(OC)c(Cc2nnc(CCC(=O)N3CCN(C4CCCC4)CC3)o2)c1 | inconclusive: 18.3 µM [activator, partial curve] |
| Cn1c(SCC(=O)c2ccccc2)nnc1C1CC1 | inconclusive: 29.1 µM [activator, partial curve, poor fit] |
| CC(c1ccccc1)N1C(=O)/C(=C/c2ccncc2)SC1=S (stereo not given) | inconclusive: 29.1 µM [activator, single point] |
| O=C(COc1cccnc1[N+](=O)[O-])c1c[nH]c2ccccc12 | inactive |
| COc1ccc(/C=C2\SC(=S)N(CCC(=O)NC3C=CS(=O)(=O)C3)C2=O)cc1 (stereo not given) | inactive |
| CC(C)(C)C1CCC(OC(=O)c2cncc(Br)c2)CC1 (stereo not given) | inconclusive: 4.11 µM [activator, full curve] |
| COc1cc(NC(=O)c2cncc(-c3ccc(C#N)cc3)c2)cc(C(=O)Nc2cccc(C(F)(F)F)c2)c1 | inconclusive: 9.2 µM [activator, partial curve, poor fit] |
| CC(C)C(=O)Nc1ccc(NC(=O)c2cccs2)cn1 | active: 18.4 µM |
| CCn1cc(C(=O)NCC(OC)OC)c(=O)c2cc(S(=O)(=O)N3CCC(C)CC3)ccc21 | inactive |
| CN1CC[C@]2(CCN3CCc4c(oc5ccccc45)[C@@H]3C2)N(C)C1=O | inconclusive: 16.4 µM [activator, partial curve] |
| CCCOc1ccc(-c2nc(N3CCN(C)CC3)c3ccccc3n2)cc1 | inconclusive: 16.4 µM [activator, partial curve] |
| COC(=O)Cc1ccc(NC(=S)N2CCCC(C)C2)cc1 (stereo not given) | inconclusive: 23.1 µM [activator, single point] |
| Cc1c(Nc2ncccc2C(=O)O)cccc1C(F)(F)F | inconclusive: 20.6 µM [activator, partial curve, poor fit] |
| O=C(c1cc(C2CC2)on1)N1CCN(c2ccc(F)cc2)CC1 | inconclusive: 23.1 µM [activator, partial curve, poor fit] |

| SMILES | Potency |
| --- | --- |
| O=C1C(c2ccncc2)=C(O)c2ccccc21 | inconclusive: 1.84 µM [activator, full curve, poor fit] |
| CCc1nnc(NC(=O)CSc2nnc(-c3cccnc3)n2C)s1 | inactive |
| COc1ccc(-n2cc(CN3CCCC3)c(-c3cccc(F)c3)n2)cc1 | inactive |
| O=[N+]([O-])c1ccc(O)c(NC(=S)Nc2ccccc2)c1 | inconclusive: 16.4 µM [activator, partial curve, poor fit] |
| CC(Sc1nnc2ccccn12)C(=O)N1CCc2ccccc2C1 (stereo not given) | inconclusive: 23.1 µM [activator, partial curve, poor fit] |
| Cc1ccc(C(=O)OCC(=O)Nc2cccc(Cl)c2C)c(O)c1 | inconclusive: 32.6 µM [activator, partial curve, poor fit] |
| Cc1cc(OCC(=O)Nc2ccc(CN3CCOCC3)cc2)c2c(C)c(C)c(=O)oc2c1 | inconclusive: 16.4 µM [activator, partial curve] |
| O=C(NC1=NCCS1)c1cc2ccccc2o1 | active: 2.31 µM |
| O=C(Nc1ccc(Cl)c(Cl)c1)c1cccnc1 | inconclusive: 25.9 µM [activator, partial curve, poor fit] |
| COc1ccc2cc(C(=O)N3CCc4ccccc43)[nH]c2c1 | inconclusive: 1.46 µM [activator, full curve] |
| COCCN(CCOC)C(=O)c1ccc(SCc2ccc(C)cc2)c([N+](=O)[O-])c1 | inactive |
| CC(Sc1nncn1C)C(=O)Nc1nnc(-c2ccccc2)s1 (stereo not given) | active: 16.4 µM |
| CC(C)(C)NC(=O)/C=C/c1cccs1 | inactive |
| O=C(c1ccccc1F)N1CCc2ccccc21 | inactive |
| C/C(=N\N=c1/sc2ccccc2n1C)c1ccccn1 | inconclusive: 23.1 µM [activator, partial curve, poor fit] |
| O=C(N[C@@H](Cc1c[nH]c2ccccc12)C(=O)O)c1ccccc1Cl | inactive |
| OC(CN1CCOCC1)CN(c1ccccc1)c1ccccc1 (stereo not given) | inactive |
| O=C(COc1ccc(Br)cc1Br)NC(=S)N1CCCc2ccccc21 | active: 23.1 µM |
| O=C(/C=C/c1ccc(Br)o1)Nc1nccs1 | inconclusive: 8.2 µM [activator, partial curve, poor fit] |
| Cc1noc(C)c1C(=O)Nc1nc2ccc(Cl)cc2s1 | inconclusive: 4.61 µM [activator, single point] |
| O=C(O)c1ccccc1N/N=C/c1cc(Br)cc(Br)c1O | inconclusive: 2.59 µM [activator, full curve] |
| COc1ccccc1-c1cc(C(=O)NC(C)C)no1 | inconclusive: 8.2 µM [activator, partial curve] |
| CC(=O)N1CCN(c2c(F)c(F)c(C(F)(F)F)c(F)c2F)CC1 | inactive |
| O=C(CSc1nc2ncc(Cl)cc2[nH]1)N1CCC(Cc2ccccc2)CC1 | inactive |
| O=C(NC1CC1)c1sc2ccccc2c1Cl | inconclusive: 16.4 µM [activator, partial curve, poor fit] |
